# In the supplement of paper PMC8728848:
# The other results are listed elsewhere or left out.
# B1: Pbx1 (Cryptococcus neoformans) (protein)
# chain: ATTKCLVSGDQDSINNALALGGEGTTVTLCPGSVHRLNSSIIFTAPSQTLTTLGNPKDRNRAMLVVDGEDLACAIRADCKQCSHAMIRSLVIDGNRPQLLRIPKGDALIEVGNAESQTVRDCKLYEPRGWSALHFREGDERQCRFGHIVDNEIGPCGEEWDDEYDSMDETKPLWGNPRADGISLACKDSIVERNVVYDATDGAIVLFGSAGSTVKNNHVYARTRVILGGINLVDYEPWDGDYTNVKVHHNHLYALGRYFKVGIVIGPASWSDDTESVVHSASVTDNEFSGGYWGYGIVVASAKNFEVLRNKVIWDGEQGVARFSGVPGSRCPKAPENGKPTAFLINRGSAKGIFQDDFVNGEVQHIICLNPDQDPPYKPWRFRDSPEAIAAKQAENPTANSAFDSRIAEALVSYQMSLLNSMDAMTQKVEHLTNPIVDDALPFVHEHERAEADKKARQEASRKEKESGNKDVDMLNVKVEELEKSGRRLKKALDGLKSDFEGLSGRLKKSADENKPIIETIFVTSQNLLLGATSQQN
# Tests used:
# Assay in all cases: glycan array binding signal (z-score within array); higher = stronger binding
# Settings in all cases: glycan notation: IUPAC condensed, linker removed
# [1] = biological target: Fuc(a1-2)Gal(b1-4)GlcNAc(b1-3)Gal(b1-4)GlcNAc(b1-3)Gal(b1-4)GlcNAc
# Summary of the method: (§1)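 Glycan array data came from 3228 arrays in the Consortium for Functional Glycomics database, and only arrays with an available protein sequence were kept. Glycan names were put into IUPAC-condensed notation, and columns mapping to the same glycan were averaged. The binding signal is a within-array Z-score, averaged across arrays of one protein sequence run at different concentrations or buffers and across linkers. A negative Z-score can be read as non-binding.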
# [2] = biological target: Fuc(a1-2)Gal(b1-4)GlcNAc(b1-3)GalNAc
# Summary of the method: as §1
# [3] = biological target: Fuc(a1-2)Gal(b1-4)GlcNAc(b1-3)[Fuc(a1-2)Gal(b1-4)GlcNAc(b1-6)]GalNAc
# Summary of the method: as §1
# [4] = biological target: Fuc(a1-2)Gal(b1-4)GlcNAc(b1-3)[Fuc(a1-3)[Gal(b1-4)]GlcNAc(b1-6)]Gal(b1-4)Glc
# Summary of the method: as §1
# [5] = biological target: Fuc(a1-2)Gal(b1-4)GlcNAc(b1-6)GalNAc
# Summary of the method: as §1
# [6] = biological target: Fuc(a1-2)Gal(b1-4)GlcNAc6S
# Summary of the method: as §1
# [7] = biological target: Fuc(a1-2)Gal(b1-4)[Fuc(a1-3)]GlcNAc
# Summary of the method: as §1
# [8] = biological target: Fuc(a1-2)Gal(b1-4)[Fuc(a1-3)]GlcNAc(b1-2)Man(a1-3)[Fuc(a1-2)Gal(b1-4)[Fuc(a1-3)]GlcNAc(b1-2)Man(a1-6)]Man(b1-4)GlcNAc(b1-4)[Fuc(a1-6)]GlcNAc
# Summary of the method: as §1
# [9] = biological target: Fuc(a1-2)Gal(b1-4)[Fuc(a1-3)]GlcNAc(b1-2)[Fuc(a1-2)Gal(b1-4)[Fuc(a1-3)]GlcNAc(b1-4)]Man(a1-3)[Fuc(a1-2)Gal(b1-4)[Fuc(a1-3)]GlcNAc(b1-2)Man(a1-6)]Man(b1-4)GlcNAc(b1-4)GlcNAc
# Summary of the method: as §1
# [10] = biological target: Fuc(a1-2)Gal(b1-4)[Fuc(a1-3)]GlcNAc(b1-3)Gal(b1-4)[Fuc(a1-3)]GlcNAc
# Summary of the method: as §1
# [11] = biological target: Fuc(a1-2)Gal(b1-4)[Fuc(a1-3)]GlcNAc(b1-3)Gal(b1-4)[Fuc(a1-3)]GlcNAc(b1-3)Gal(b1-4)[Fuc(a1-3)]GlcNAc
# Summary of the method: as §1
# [12] = biological target: Fuc(a1-2)Gal(b1-4)[Fuc(a1-3)]GlcNAc(b1-3)GalNAc
# Summary of the method: as §1
# [13] = biological target: Fuc(a1-2)Gal(b1-4)[Fuc(a1-3)]GlcNAc(b1-3)[Neu5Ac(a2-6)Gal(b1-4)GlcNAc(b1-6)]Gal(b1-4)Glc
# Summary of the method: as §1
# [14] = biological target: Fuc(a1-2)Gal3S(b1-4)GlcNAc
# Summary of the method: as §1
# [15] = biological target: Fuc(a1-2)Gal6S(b1-3)GlcNAc
# Summary of the method: as §1
# [16] = biological target: Fuc(a1-2)Gal6S(b1-3)GlcNAc6S
# Summary of the method: as §1
# Fuc(a1-2)Gal6S(b1-4)Glc = biological target: Fuc(a1-2)Gal6S(b1-4)Glc
# Summary of the method: as §1
# [17] = biological target: Fuc(a1-2)Gal6S(b1-4)Glc6S
# Summary of the method: as §1
# Fuc(a1-2)[Gal(a1-3)]Gal = biological target: Fuc(a1-2)[Gal(a1-3)]Gal
# Summary of the method: as §1
# [18] = biological target: Fuc(a1-2)[Gal(a1-3)]Gal(b1-3)GalNAc
# Summary of the method: as §1
# [19] = biological target: Fuc(a1-2)[Gal(a1-3)]Gal(b1-3)GalNAc(b1-3)Gal(a1-4)Gal(b1-4)Glc
# Summary of the method: as §1
# [20] = biological target: Fuc(a1-2)[Gal(a1-3)]Gal(b1-3)GlcNAc
# Summary of the method: as §1
# [21] = biological target: Fuc(a1-2)[Gal(a1-3)]Gal(b1-3)GlcNAc(b1-2)Man(a1-3)[Fuc(a1-2)[Gal(a1-3)]Gal(b1-3)GlcNAc(b1-2)Man(a1-6)]Man(b1-4)GlcNAc(b1-4)GlcNAc
# Summary of the method: as §1
# [22] = biological target: Fuc(a1-2)[Gal(a1-3)]Gal(b1-3)GlcNAc(b1-2)Man(a1-3)[Fuc(a1-2)[Gal(a1-3)]Gal(b1-3)GlcNAc(b1-2)Man(a1-6)]Man(b1-4)GlcNAc(b1-4)[Fuc(a1-6)]GlcNAc
# Summary of the method: as §1
# [23] = biological target: Fuc(a1-2)[Gal(a1-3)]Gal(b1-3)GlcNAc(b1-3)GalNAc
# Summary of the method: as §1
# [24] = biological target: Fuc(a1-2)[Gal(a1-3)]Gal(b1-3)GlcNAc(b1-6)GalNAc
# Summary of the method: as §1
# [25] = biological target: Fuc(a1-2)[Gal(a1-3)]Gal(b1-4)Glc
# Summary of the method: as §1
# [26] = biological target: Fuc(a1-2)[Gal(a1-3)]Gal(b1-4)GlcNAc
# Summary of the method: as §1
# [27] = biological target: Fuc(a1-2)[Gal(a1-3)]Gal(b1-4)GlcNAc(b1-2)Man
# Summary of the method: as §1
# [28] = biological target: Fuc(a1-2)[Gal(a1-3)]Gal(b1-4)GlcNAc(b1-2)Man(a1-3)[Fuc(a1-2)[Gal(a1-3)]Gal(b1-4)GlcNAc(b1-2)Man(a1-6)]Man(b1-4)GlcNAc(b1-4)GlcNAc
# Summary of the method: as §1
binder,measurement,setting,value
B1,glycan array binding signal (z-score),[1],-0.224
same,glycan array binding signal (z-score),[2],0.197
same,glycan array binding signal (z-score),[3],0.42
same,glycan array binding signal (z-score),[4],0.18
same,glycan array binding signal (z-score),[5],0.406
same,glycan array binding signal (z-score),[6],-0.356
same,glycan array binding signal (z-score),[7],-0.326
same,glycan array binding signal (z-score),[8],0.778
same,glycan array binding signal (z-score),[9],0.738
same,glycan array binding signal (z-score),[10],0.13
same,glycan array binding signal (z-score),[11],-0.478
same,glycan array binding signal (z-score),[12],1.16
same,glycan array binding signal (z-score),[13],1.13
same,glycan array binding signal (z-score),[14],0.345
same,glycan array binding signal (z-score),[15],0.434
same,glycan array binding signal (z-score),[16],1.88
same,glycan array binding signal (z-score),Fuc(a1-2)Gal6S(b1-4)Glc,-0.057
same,glycan array binding signal (z-score),[17],-0.449
same,glycan array binding signal (z-score),Fuc(a1-2)[Gal(a1-3)]Gal,-0.844
same,glycan array binding signal (z-score),[18],-0.092
same,glycan array binding signal (z-score),[19],-0.412
same,glycan array binding signal (z-score),[20],0.272
same,glycan array binding signal (z-score),[21],0.05
same,glycan array binding signal (z-score),[22],0.282
same,glycan array binding signal (z-score),[23],-0.437
same,glycan array binding signal (z-score),[24],-0.296
same,glycan array binding signal (z-score),[25],0.291
same,glycan array binding signal (z-score),[26],-0.654
same,glycan array binding signal (z-score),[27],-0.203
same,glycan array binding signal (z-score),[28],1.13
